Experimental findings from PubChem BioAssay AID1159614 (National Center for Advancing Translational Sciences (NCATS), 2016) are described below.

The campaign covered roughly 45,000 compounds. About 65 (0.1%) were called active. Calls follow the shape of the dose curve; as a rule, active = well fitted activation curve with a large enough effect; inconclusive = small, poorly fitted or top-dose-only effect; inactive = no such curve, though single readings can be large or run the other way. The list shows a part of the results.

Chain of UniProt P54803 (P54803 whole entry, looked up): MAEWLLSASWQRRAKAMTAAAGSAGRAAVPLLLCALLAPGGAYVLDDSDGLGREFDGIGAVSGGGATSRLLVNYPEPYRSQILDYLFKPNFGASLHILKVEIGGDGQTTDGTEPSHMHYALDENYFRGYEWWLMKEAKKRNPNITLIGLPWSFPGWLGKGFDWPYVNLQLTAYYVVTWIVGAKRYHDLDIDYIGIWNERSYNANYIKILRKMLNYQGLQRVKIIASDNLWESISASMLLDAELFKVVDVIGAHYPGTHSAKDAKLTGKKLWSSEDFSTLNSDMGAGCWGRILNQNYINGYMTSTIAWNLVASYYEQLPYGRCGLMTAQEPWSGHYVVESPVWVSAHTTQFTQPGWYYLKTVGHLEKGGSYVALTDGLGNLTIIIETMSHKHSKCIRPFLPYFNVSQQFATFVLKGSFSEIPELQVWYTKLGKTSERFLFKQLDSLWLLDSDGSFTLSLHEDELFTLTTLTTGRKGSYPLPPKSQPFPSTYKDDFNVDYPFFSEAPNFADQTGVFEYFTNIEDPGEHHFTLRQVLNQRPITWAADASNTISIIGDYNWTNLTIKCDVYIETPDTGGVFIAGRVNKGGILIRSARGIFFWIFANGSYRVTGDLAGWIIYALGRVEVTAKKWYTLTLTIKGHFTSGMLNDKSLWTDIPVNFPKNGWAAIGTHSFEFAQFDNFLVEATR

This test deals with Galactocerebrosidase (Homo sapiens) (UniProt P54803). The test is described as follows: A Novel Cell-Based Assay to Identify Small Molecules for B -Galactocerebrosidase. Also: 0% is about no effect; nearly all actives have a fitted effect of over 65% in size. The note with it: 145M-Twi-hGALC-G270D cells, HMU-beta-Gal fluorescence, 48 h; series mostly up to 57.5 µM; activation: at the top concentration. In short, it runs like this:
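qHTS, 1536-well; 145M-Twi-hGALC-G270D cells (WT line also made) in DMEM/F12 + 10% FBS; compound incubation on live cells; HMU-β-gal 0.1 mM final, pH 5.2, NaTC; carbonate stop; fluorescence increase = enhanced residual activity.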
On to `CN(C)CCNC(=O)c1ccc(Cn2c(=O)c3cccn3c3cccnc32)cc1`, for which the “activation” value is inactive: -4.04%.
In the case of `CCOc1ccccc1NC(=O)c1nn(C)c2c1CSc1ccccc1-2`, the “activation” value is inactive: 3.33%.
The result for `COc1ccc(C)cc1NC(=O)CN1C(=O)COc2ccc(S(=O)(=O)NC3CCCC3)cc21` reads inactive: -18.1%; that for `CCOc1ccc(-c2csc(-c3c(N)c(C(=O)c4ccc5c(c4)OCO5)n4ccccc34)n2)cc1`, inactive: -7.91%.
For `CC(=O)c1cccc(Nc2ccc3cc(S(=O)(=O)N4CCCC4)ccc3n2)c1`, the “activation” value is inactive: -8.25%.
The result for `CCCn1c(=NC(=O)c2c(-c3c(F)cccc3Cl)noc2C)c(C(=O)OCC)cc2c(=O)n3ccccc3nc21` reads inactive: -8.47%; that for `COc1ccc(NC(=O)c2cc(=O)c3ccc(C)c(C)c3o2)cc1Cl`, inactive: -24.1%.
Then `Cc1ccc(-n2ncc(C(=O)NCCN3CCc4ccccc4C3)c2C2CCNCC2)cc1C`, with inactive: -24.1%.
The result for `Cc1ccccc1CSc1nc2c([nH]c3ccccc32)c(=O)n1C` reads inactive: -12.1%.
For the compound `CCOC(=O)c1cc(S(=O)(=O)Nc2ccccc2OCC)[nH]n1`, the “activation” value is inactive: -4.37%.
On to `COc1ccc(-n2c(=O)c3c4c(sc3n3c(SC(C)C)nnc23)COC(C(C)C)C4)cc1` (stereo unspecified), for which the “activation” value is inactive: -9.86%.
For `CCCc1cc(=O)[nH]c(SCc2nc(-c3ccccc3F)no2)n1`, the “activation” value was inactive: -1.07%.
Turning to `CCOc1ccc(NC(=O)C(C)Sc2nc3ncccc3o2)cc1` (stereo unspecified), the “activation” value is inactive: -6.92%.
Consider `CCN(CC)CCN`, for which the “activation” value is inactive: -19.3%.
As to `CC1CCN(S(=O)(=O)c2ccc3c(c2)N(CC(=O)NCCCN2CCCC(C)C2)C(=O)CS3)CC1` (stereo unspecified), the “activation” value is inactive: -5.78%.
As to `Cc1cccc(CNC(=O)c2ccc(NC(=O)N3CCSc4ncccc43)cc2)c1`, the “activation” value is inactive: 1.32%.
Take `Cc1cccc(NC(=O)c2oc3ccc(S(=O)(=O)N4CCC5(CC4)OCCO5)cc3c2C)c1C`: the “activation” value is inactive: -9.47%.
With `Cc1ccc2c(c1)-c1ncc(C(=O)c3cc(Br)ccc3O)cc1CO2`, the “activation” value was inactive: 12.3%.
Take `CC(=O)c1ccc(N2CCN(c3ncnc4c3cnn4C)CC2)cc1`: the “activation” value was inactive: -9.1%.
With `COc1ccc(-n2nc(C(=O)Nc3cccc(C)n3)c3c4ccccc4n(C)c3c2=O)cc1`, the “activation” value was inactive: -1.58%.
As for `Cc1cc(C)cc(NC(=O)Cn2c(=O)n(Cc3ccc4c(c3)OCO4)c(=O)c3oc4ccccc4c32)c1`, the “activation” value is inactive: 5.03%.
Then `Cc1cccc(CNC(=O)Cn2ccc3cc(S(=O)(=O)N4CCC(C)CC4)ccc32)c1`, with inactive: -7.18%; and `CCOC(=O)C1CCN(C(=O)Cn2ncc3c([nH]c4ccccc43)c2=O)CC1`, with inactive: 3.6%.
Turning to `CCOC(=O)c1c(C)[nH]c(C)c1S(=O)(=O)N(C)CC(=O)Nc1cccc(C(F)(F)F)c1`, the “activation” value was inactive: 3.08%.
As for `COc1cccc(C2CC(=O)Nc3c2c(=O)n(C)c2nc4ccccc4n32)c1` (stereo unspecified), the “activation” value is inactive: -10.4%.
With `COc1ccccc1-c1cc(C(F)(F)F)nc(S(=O)(=O)CCCC(=O)Nc2ccc(F)cc2F)n1`, the “activation” value is inactive: -14.5%.
For the compound `COc1ccc(-c2ccc(CCC(=O)O)n2-c2cc(Cl)ccc2O)cc1`, the “activation” value is inactive: -11%.
For `O=C(Cn1c(=O)n(Cc2nc(-c3ccccc3)no2)c(=O)c2cc3c(cc21)OCO3)Nc1cccc(C(F)(F)F)c1`, the “activation” value is inactive: -18.2%.
The result for `Cc1cccc(C(=O)Nc2nc(-c3nnn(-c4cc(C)ccc4C)c3C)ns2)c1` reads inactive: -24.6%; that for `CCOC(=O)c1cnc(N2CCN(c3ccc(C)cc3C)CC2)c2ccccc12`, inactive: -10.5%; that for `Cn1c(=O)c2c(SCC(=O)Nc3ccc(F)cc3F)nc(C3CCCC3)nc2n(C)c1=O`, inactive: 5.02%.
On to `CC(C)(C)c1ccccc1NC(=O)c1cnn2c(C(F)F)cc(-c3ccccc3)nc12`, for which the “activation” value is inactive: -13.2%.
Turning to `COc1ccccc1NC(=O)CSc1oc(-c2ccc(F)cc2)nc1S(=O)(=O)c1ccc(Br)cc1`, the “activation” value was inactive: -9.64%.
As for `Cc1ccccc1CNC(=O)c1ccc2[nH]c(C)c(C)c2c1`, the “activation” value was inactive: 3.09%.
`CSc1cccc(NC(=O)CN2C(=O)COc3ccc(S(=O)(=O)N4CCC(C)CC4)cc32)c1`: the “activation” value was inactive: -14%.
The result for `Cc1ccc(C)c(NC(=O)Cn2ccn(-c3ccc(F)cc3)c(=O)c2=O)c1` reads inactive: -10.4%; that for `Cc1ccc(-c2nc3c4ccccc4n(CC(=O)N4CCN(c5ccc(F)cc5)CC4)c(=O)n3n2)cc1`, inactive: -2.16%.
As for `OC1C(O)C(O)C(O)C(O)C1O` (stereo unspecified), the “activation” value is inactive: -7.36%.
Take `Cc1cc(C)cc(Nc2cc(C)nc3nc(-c4ccco4)nn23)c1`: the “activation” value was inactive: -8.02%.
Regarding `Cc1ccc(CN(C(=O)c2ccccc2[N+](=O)[O-])c2ccccn2)cc1`, the “activation” value is inactive: -27.2%.
The result for `Cc1cc(N2CCC(C(=O)NCCC(C)C)CC2)n2nc(C)c(-c3ccc(Cl)cc3)c2n1` reads inactive: -4.21%; that for `CCC(C)NC(=O)Cn1c(-c2cccs2)cc2cc(Cl)ccc21` (stereo unspecified), inactive: -12.7%; that for `CCOC(=O)c1c(NC(=O)c2cc(-c3ccc(Cl)cc3)on2)sc(C)c1C`, inactive: -17.8%.
As for `CCOc1ccc(CCNC(=O)c2ccc3c(c2)sc2nc(-c4ccc(F)cc4)cn23)cc1OCC`, the “activation” value was inactive: -13.7%.
Consider `O=S(=O)(NCCc1csc2nc(-c3ccc(F)cc3)nn12)c1ccc(Oc2ccccc2)cc1`, for which the “activation” value was inactive: -17.9%.
As for `Cc1cc(C)cc(N2C(=O)CCSC23C(=O)N(Cc2ccccc2)c2ccccc23)c1` (stereo unspecified), the “activation” value is inactive: 3.67%.
The result for `CC(C)(C)NC(=O)c1ccc2nc(CCc3ccccc3)oc2c1` reads inactive: -17.3%; that for `Cc1ccc(Cl)cc1NC(=O)Cn1ncc2c(C)n(Cc3ccccc3F)c(C)c2c1=O`, inactive: -19%; that for `CC1CN(C(=O)CCC(=O)NCc2ccccc2)c2cc(Cl)ccc2O1` (stereo unspecified), inactive: -5.73%.
On to `COc1ccc(-c2nc(-c3ccccc3)c(-c3ccc(F)cc3)[nH]2)c(OC)c1C`, for which the “activation” value is inactive: -4.19%.
On to `Cc1nc2sccn2c(=O)c1S(=O)(=O)Nc1ccc(N2CCN(C(=O)C(C)C)CC2)cc1`, for which the “activation” value is inactive: -5.84%.
As for `COc1cc(C(=O)Nc2nonc2-c2ccc(Cl)cc2)cc(OC)c1OC`, the “activation” value is inactive: 1.91%.
Then `Cc1ccc(N2CC(NC(=O)C3CC3)CC2=O)cc1C` (stereo unspecified), with inactive: -12.8%; and `CCOC(=O)c1ccn(-c2nc(-c3cccc(OC)c3)cc(C(F)(F)F)n2)n1`, with inactive: -14.2%.
As to `CCOC(=O)c1[nH]c(C)c(CCC(=O)Nc2ccc(Br)c(C)c2)c1C`, the “activation” value is inactive: -13.7%.
For `COc1cccc(NC(=O)N(Cc2c[nH]c3ccccc23)C2CCCCC2)c1`, the “activation” value was inactive: -4.66%.
As to `Cc1ccc(C(CC(=O)Nc2ccc(F)c(Cl)c2)N2Cc3ccccc3C2=O)cc1` (stereo unspecified), the “activation” value was inactive: -3.89%.
The result for `CC(C)c1ccc(NC(=O)CCn2c(=O)c3cccn3c3ccccc32)cc1` reads inactive: -6.77%; that for `COc1cccc(CNCCSc2nnnn2C)c1OCc1ccc(F)cc1`, inactive: -9.38%.
For the compound `CCOc1ccc(C(c2c(O)cc(C)n(Cc3ccco3)c2=O)N2CCN(c3ccccc3)CC2)cc1` (stereo unspecified), the “activation” value is inactive: -15.9%.
Consider `COc1ccc(NC(=O)CSC2=Nc3ccccc3C3=NC(CC(=O)NCc4ccc5c(c4)OCO5)C(=O)N23)cc1` (stereo unspecified), for which the “activation” value is inactive: -0.965%.
As to `CCCc1cnc2c(c1SCC(=O)Nc1ccccc1F)c(=O)n(C)c(=O)n2C`, the “activation” value is inactive: -19.3%.
In the case of `Cc1cccc(CNC(=O)C2CCN(S(=O)(=O)c3ccc4c(c3)CCCN4C(=O)C3CCC3)CC2)c1`, the “activation” value is inactive: -12.3%.
For `CCCCCc1nn2cc(-c3ccccc3)nc2s1`, the “activation” value is inactive: -0.936%.
As for `Cn1nnnc1SCCCNCc1cc(Cl)ccc1OCc1ccccc1F`, the “activation” value is inactive: -8.72%.
For the compound `COC(=O)c1ccc(NC(=O)CC2C(=O)N(c3ccccc3)C(=O)N2Cc2ccco2)cc1` (stereo unspecified), the “activation” value was inactive: -7.61%.
Consider `Cc1ccc(NC(=O)Cn2cnc3sc(C)c(S(=O)(=O)N4CCN(c5ncccn5)CC4)c3c2=O)cc1F`, for which the “activation” value was inactive: -9.65%.
In the case of `Cc1cccc(N2CCN(S(=O)(=O)c3c(C(=O)N4CCC(C)CC4)c(C)n(C)c3C)CC2)c1C`, the “activation” value is inactive: -7.98%.
As to `COc1cc(Nc2ncc3c(n2)CCN(Cc2cc(F)cc(F)c2)C3)cc(OC)c1`, the “activation” value was inactive: -28.2%.
With `CCCC12CN3CC(CCC)(CN(C1)C3c1c(C)[nH]c(=O)[nH]c1=O)C2=O` (stereo unspecified), the “activation” value was inactive: -12.3%.
Regarding `O=C(Nc1ccc(F)cc1F)N1CCN(c2ccc(Cl)c(Cl)c2)CC1`, the “activation” value was inactive: -9.87%.
Turning to `CCc1nn(Cc2c(C)cc(C)cc2C)c(=O)c2cc3cc(C)ccc3n12`, the “activation” value is inactive: -6.75%.
Regarding `Cc1ccc(C2C=C(c3ccc(Cl)cc3)Nc3nc(NC(=O)c4ccco4)nn32)cc1` (stereo unspecified), the “activation” value was inactive: -1.9%.
As to `CCCCN(C)c1nnc(NC(=O)Nc2ccc(Br)c(C)c2)s1`, the “activation” value is inactive: -23%.
For `Nc1cc(C(Cl)=C(Cl)Cl)c(S(N)(=O)=O)cc1S(N)(=O)=O`, the “activation” value is inactive: -8.25%.
On to `CCn1cc2nc(SCC(=O)Nc3ccc(OC)cc3OC)n(Cc3ccc(Cl)cc3)c(=O)c2n1`, for which the “activation” value is inactive: -2.63%.
The result for `CCOCCc1nn2c(=O)cc(COC(=O)c3ccccc3NC(=O)c3ccc(C)cc3)nc2s1` reads inactive: -4.12%; that for `CCOc1ccc(NC(=O)Cn2cc(C(=O)c3ccc(C)cc3)c(=O)c3cc4c(cc32)OCO4)cc1`, inactive: -16.1%.
`CCc1ccc(CN(Cc2ccco2)C(=O)c2cc(-c3ccc(C)c(F)c3)on2)cc1`: the “activation” value was inactive: -15.9%.
The result for `COc1ccc(CCNC(=O)CCCCn2c(=O)c3ccccc3n(Cc3ccccc3)c2=O)cc1OC` reads inactive: -14.9%; that for `Clc1cccc(-n2ncc3c(NC4CCCCCC4)ncnc32)c1`, inactive: -14.5%.
Take `Fc1ccccc1N1CCN(c2ncnc3c2nc2n3CCCC2)CC1`: the “activation” value was inactive: 3.96%.
Consider `CCOC(=O)c1ccc(NC(=O)CSc2ncc(S(=O)(=O)c3ccc(C)c(Cl)c3)c(=O)[nH]2)cc1`, for which the “activation” value is inactive: -2.67%.
Take `CN(C)c1ccc(NC(=O)Cn2cc(S(=O)(=O)Cc3ccccc3Cl)c3ccccc32)cc1`: the “activation” value was inactive: -15.5%.
The result for `O=C(CNS(=O)(=O)c1cccs1)N1CCN(c2ccccc2F)CC1` reads inactive: -4.62%; that for `CCCn1c(=O)c2sccc2n2c(CCCC(=O)NC3CCCCC3)nnc12`, inactive: -11.5%.
For the compound `Cc1ccc(F)cc1S(=O)(=O)N1CCC(c2nc3ccccc3s2)CC1`, the “activation” value was inactive: -10.6%.
The result for `Brc1cccc(-c2nnn3c2nc(N2CCCCC2)c2ccccc23)c1` reads inactive: -4.34%; that for `CCn1c2c(c(=O)n3ncc(C(=O)Nc4ccc(Cl)cc4C)c13)CN(Cc1ccc(OC)cc1)CC2`, inactive: 5.78%; that for `Cc1ccc2nc3c(c(Nc4ccc(C)c(C)c4)c2c1)CCC3`, inactive: -31.7%.
Regarding `Cc1ccccc1Cn1c(C)c(CNCCCc2ccccc2)c(C(=O)O)c1C`, the “activation” value was inactive: -1.7%.
Regarding `Cc1ccccc1Nc1c(-c2c[nH]c3ccccc23)nc2cccc(C)n12`, the “activation” value was inactive: -7.53%.
Turning to `COc1ccc(C2C=C(c3ccc(Cl)cc3)Nc3nc(NC(=O)CCC(=O)O)nn32)cc1` (stereo unspecified), the “activation” value was inactive: -7.75%.
For the compound `CCC(C)NC(=O)Cn1c(=O)c2cccn2c2ccc(F)cc21` (stereo unspecified), the “activation” value was inactive: -18.9%.
Then `CCCOc1cccc(C(=O)N2CCCCC2CCN2CCCCC2)c1` (stereo unspecified), with inactive: 1%; and `O=C(Nc1ccc(F)cc1Cl)c1cnc(N2CCOCC2)c2ccccc12`, with inactive: 3.63%.
